Sequences with one replicate were seen in a single cluster, so their values are uncertain.
System: ATP
Assay: switch fluorescence ratio, 500 uM ATP over buffer (Cy3 cluster intensity, sum of 5 cycles each) (fold (ratio)); higher = stronger signal-on switching upon ATP binding; sequences stand for … in TCGTCGGCAGCGTCAGATGTGTATAAGAGACAGTTTTTTTTTTTTTTTTTTTTTTTTT…TC
Details: aptamer strand: ATP DNA aptamer (quencher-CACCTGGGGGAGTATTGCGGAGGAAGG + anchor), 100 nM annealed; ATP concentration: 500 uM; one replicate
Procedure, shortened: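 Values give the fluorescence ratio for each switch-domain sequence, averaged from per-cluster ratios of summed target-cycle to summed buffer-cycle Cy3 intensity. The Cy3-labelled switching-strand clusters sat on a modified Illumina MiSeq flow-cell, were annealed to 100 nM quencher-labelled ATP aptamer, and were imaged in selection buffer, then after 15 min with 500 uM ATP at 22 °C. Five cycles ran with NaOH stripping and re-annealing between them, and clusters outside 100-1000 RFU were excluded.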
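Further: ATP exposure 15 min at 22 °C before imaging.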

Row | Sequence | switch fluorescence ratio
1 | TGACCCAAAC | 1.11
2 | AATCAACTTG | 1.01
3 | AATCTCGCTA | 1.13
4 | CGTTCTTAAA | 0.968
5 | GTCCTAGGAG | 1.01
6 | AGAGAGAACA | 0.982
7 | ATCCCAACGT | 1
8 | GCTTATTGCC | 1.03
9 | CTGGACTAAT | 0.968
10 | GTTTGGAGTA | 0.996
11 | TAATGGACGG | 0.998
12 | TCCATTGGAC | 1.02
13 | CAAGCGAACC | 1.08
14 | CATTATATAC | 1.15
15 | GTTCTGTTTG | 1.02
16 | GACTGGCCGG | 1.02
17 | CAACTGTTG | 1.01
18 | ACACACGTTG | 1.31
19 | TTCCTATATT | 0.994
20 | ACATCACCGA | 1.25
21 | TTAAATACCG | 0.983
22 | ACTCCGAGCA | 2.67
23 | TCATCAAACG | 1.02

Row | Sequence | switch fluorescence ratio
24 | GCCGGTTGTT | 1.01
25 | CAAAGCAGCA | 1.07
26 | GTTCCTGGGT | 1.33
27 | TCCGAGGTTG | 2.19
28 | AAGTCCTTAG | 0.974
29 | CAATATGGTA | 0.987
30 | TGTTTGAAAG | 0.968
31 | CTCGTCACGG | 1.04
32 | GGGTCTCTTA | 1.04
33 | TAGATCCCGC | 0.982
34 | CTGTGCAAGG | 1.6
35 | CTACTCATGA | 0.976
36 | AGTGATCAGC | 1.05
37 | GGAGGTATCG | 1.08
38 | TCTCCGAAGG | 1.59
39 | CCACCTGTTG | 1.17
40 | CGATCCGCCT | 1.08
41 | CTGTGTTCCG | 0.917
42 | GCATATTATC | 1.1
43 | ACGCCCGATA | 1.12
44 | TTATATTACC | 1.05
45 | CTCTTTGTC | 1.01
46 | GGGAAGTTTA | 0.951

Row | Sequence | switch fluorescence ratio
47 | TTCGTCAAAT | 1
48 | CGTTCCGTTT | 0.995
49 | TTTGGAGGCA | 0.97
50 | AATTCATGTC | 1.14
51 | TTTGCAATAT | 1.23
52 | GAACTTTTCG | 1.11
53 | ATTGGTGGCG | 1.07
54 | AAGATTCTAA | 1.02
55 | TATCCAGACC | 1
56 | GCCCGAAGTT | 1.01
57 | CACCTTGCCC | 1.17
58 | TAGACGAGAA | 0.994
59 | TACCCGTTGT | 1.08
60 | GATAAAAAAT | 0.971
61 | GCAGCGTGTC | 1.05
62 | CTCTGTTCTG | 1
63 | TGGGAAGCGT | 0.914
64 | GACGCAGTAT | 4.56
65 | TAGTACAATT | 1.02
66 | GTGAACTCTT | 1.03
67 | GGCGAGGGGT | 1.02
68 | TTTGAAGCAC | 1.2
69 | TACTTAGAGC | 1.08

Row | Sequence | switch fluorescence ratio
70 | TTACTGTCGA | 0.989
71 | CGCCGGACCT | 1.01
72 | TTACCTGTTG | 0.975
73 | TATTTCCCGC | 1.13
74 | AGCATCGATC | 1.02
75 | AGTAAGTGTT | 0.998
76 | TAGACCGGGA | 1.01
77 | TCAAGCCAGT | 0.976
78 | TATTAACTGT | 1.03
79 | GCTCTCCGTC | 1.32
80 | GAACCCTTAT | 1.01
81 | TCGATTCATA | 1
82 | TACCTGTGTG | 0.966
83 | GAAGGGTGCC | 1.01
84 | CCGCGGGATA | 1.07
85 | TCTACCGCTC | 2.42
86 | AGGTGGGAGG | 0.979
87 | CGTTTGAAAT | 0.956
88 | GGTGCCTCAG | 1.02
89 | GTACGAATGC | 1.29
90 | ACATGACTGG | 0.991
91 | TCAGGAGAGA | 0.997
92 | ATATTTCAGA | 1.03

Row | Sequence | switch fluorescence ratio
93 | AAGGCAGCTC | 1.03
94 | AATTCTATCT | 0.997
95 | CCCCGTGTTA | 1.54
96 | TCCCCGTGTT | 1.07
97 | CTAAGGTACC | 1.05
98 | TTATCACCGA | 1.04
99 | GTGCCGGGCA | 0.981
100 | GGCGTGGGCA | 0.981
101 | CCGGGTTAGA | 1.03
102 | CTTAGAGCAC | 1.02
103 | GGCGATTAAT | 1.08
104 | CCATGTACCA | 1.08
105 | CGCAGTTTGG | 1.03
106 | CGATTAATTT | 0.982
107 | GAATGGTCTT | 1.03
108 | AACGCTCATT | 1.01
109 | AATCTAATAT | 0.996
110 | TCAACCGGCA | 1.12
111 | TAGAGTGGTC | 1
112 | TGGTGTAATC | 1
113 | TAATTTAGCC | 0.994
114 | GCATGGTTG | 1.03
115 | ATCTTCTAA | 1

Row | Sequence | switch fluorescence ratio
116 | GCAGCACCTG | 1.08
117 | GGTCTTACGG | 1
118 | ATGAAGGTAT | 1
119 | CTACTTTCT | 0.99
120 | AATCAGTGG | 1
121 | AATAGGACAG | 1.02
122 | TATGTGGTTT | 0.979
123 | ATTTCAATCA | 0.971
124 | TTGTGCTCGT | 1.01
125 | TTTGGACAT | 0.993
126 | ATGTCAGTTT | 1.01
127 | GAAACTCGAG | 1.01
128 | GCCTTGAAAG | 0.991
129 | TCCATTAAGT | 1.01
130 | GATTCTTTTA | 1.05
131 | AGACAAACGT | 1.32
132 | ATTGAGATA | 0.968
133 | GCATACCGGG | 1.06
134 | CCGAGATACC | 2.9
135 | ACCGGACTAT | 1.21
136 | GCACAGGTTT | 1.73
137 | CTATTGGTCC | 1.06
138 | ACTATTCGCG | 0.989

Row | Sequence | switch fluorescence ratio
139 | GTGAGCGACA | 0.987
140 | AGAAGTTGCC | 0.974
141 | TTAGTCGAGT | 0.949
142 | GTACACCTCT | 0.999
143 | TGGAGAATTC | 1.03
144 | TCCATGGTAG | 1.01
145 | AAGGCATCC | 1.01
146 | GTCGTATGGA | 0.995
147 | AAAACAACAC | 1.11
148 | TTTATCTCAG | 1.01
149 | TGTTGAAACT | 1.05
150 | TTCTCTCTTT | 1.03
151 | ATTGAGCTTT | 0.964
152 | GGTCGTGGAA | 0.998
153 | GACGGTTAGT | 1
154 | AGTATCATAT | 1
155 | TGTGTATGTG | 1.03
156 | CCACAAAAAG | 1.9
157 | AGACGTTGTC | 0.98

— the supplement of paper PMC10126150
